Some of the results follow.

The target of this assay is T1, OsWOX13 (Oryza sativa, UniProt Q5QMM3 1-267).
T1 sequence: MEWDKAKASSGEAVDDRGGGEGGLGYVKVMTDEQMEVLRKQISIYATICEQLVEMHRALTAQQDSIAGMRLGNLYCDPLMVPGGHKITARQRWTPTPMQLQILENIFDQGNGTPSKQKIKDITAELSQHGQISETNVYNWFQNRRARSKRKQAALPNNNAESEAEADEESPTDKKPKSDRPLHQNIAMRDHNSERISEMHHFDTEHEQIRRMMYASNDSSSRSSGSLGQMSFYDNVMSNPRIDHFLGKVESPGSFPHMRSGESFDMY
Kind of assay: protein-binding microarray (RPBM); PBS, 2% BSA, 51.3 ng/ul salmon testes DNA, 50 uM zinc acetate, 200 nM TF, 25 C, 1 h; high values mean tight binding. The note with it: protein: recombinant; tags: N-terminal polyhistidine and DsRed monomer fusion (pET32a); label: CyDye5-dUTP incorporated in the synthesized complementary strand; 3' TTTTT single-stranded linker to array surface; dsDNA, one strand shown. In short, it runs like this: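 A custom Agilent array was converted to double-stranded form by primer extension with Cy5-dUTP and blocked with 2% BSA. Protein at 200 nM in PBS with 2% BSA, salmon testes DNA and 50 µM zinc acetate was applied for 1 h at 25 °C, followed by washing. The proteins were polyhistidine–DsRed N-terminal fusions of transcription factors, expressed in E. coli BL21-CodonPlus and Ni–NTA-purified. The binding signal is per-feature fluorescence intensity (arbitrary units) from an Axon 4000B scanner.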
In the case of “ACATCAAAATTGGTAGTTTGGTTGAAATTAGAACGATGTGCGGAGTCACCTAGTGCAG”, the binding signal was 4660 fluorescence intensity (a.u.). As to “GGCCTTCCAGCAAAATACCAATCAAGAATTGAGTACCTAGCGGAGTCACCTAGTGCAG”, the binding signal was 3850 fluorescence intensity (a.u.). Regarding “TAATAAATTTGTCTCGCAATTTATAGGCGGAATCTGTAATCGGAGTCACCTAGTGCAG”, the binding signal is 8200 fluorescence intensity (a.u.). “TGTATGATTTATGTATAATTAGAGATATACAATCATATAACGGAGTCACCTAGTGCAG”: the binding signal is 16900 fluorescence intensity (a.u.). In the case of “GTTAGATTTATGTAATGAATAATTTGAAACTATTCCTCCTCGGAGTCACCTAGTGCAG”, the binding signal is 27300 fluorescence intensity (a.u.). Consider “TTAATTTATTTGATGACTGGGGTGTCACGTAAGCGCCACGCGGAGTCACCTAGTGCAG”, for which the binding signal is 37000 fluorescence intensity (a.u.). In the case of “TCACATAAATAATCATTAACAAATTATAAAATTAGTACGACGGAGTCACCTAGTGCAG”, the binding signal is 14800 fluorescence intensity (a.u.). “TAAACAAATTGACAAATCCGCGAGATCCAATGAAGCACATCGGAGTCACCTAGTGCAG”: the binding signal was 46200 fluorescence intensity (a.u.). In the case of “CATGATTTTACTTTCTTTTCAGGTCTTAGGAGTGAGCTTCCGGAGTCACCTAGTGCAG” it was 9930 fluorescence intensity (a.u.); in that of “ATGAAAACAAACTCTTTGTGATTGGATAGTGGCCAGGGCACGGAGTCACCTAGTGCAG”, 25600 fluorescence intensity (a.u.); in that of “GTAATATTATTGATTTATCCGTCGCTTTCGAAATGGGCACCGGAGTCACCTAGTGCAG”, 22000 fluorescence intensity (a.u.). With “GTTTTGCCATTGAATTCTCTAATTGACAATTTAACATGCACGGAGTCACCTAGTGCAG”, the binding signal was 21100 fluorescence intensity (a.u.). In the case of “TTGATGACTTAATAAAATTTTGACAGTGCTAAAAGTTACCCGGAGTCACCTAGTGCAG” it was 23400 fluorescence intensity (a.u.); in that of “CTACTGGAGTAGATTGGTAGTTACTTGTATATGAGCATGCCGGAGTCACCTAGTGCAG”, 8700 fluorescence intensity (a.u.). For the sequence “TCATATAATTGGATTTATAATTAATCACCAATACCAAACTCGGAGTCACCTAGTGCAG”, the binding signal is 35300 fluorescence intensity (a.u.). Under “AAGATGTGAAATTTAATAAATTATCATCTATAGTCGATGACGGAGTCACCTAGTGCAG” stands 6380 fluorescence intensity (a.u.). Regarding “GAGAAAATTTTCAAATGGATTGTGCATTACTTTCCAAAAGCGGAGTCACCTAGTGCAG”, the binding signal was 4260 fluorescence intensity (a.u.).

For the sequence “ATAAACAGACATCCTTCGAACTCCCAATCAGACCATCAGCCGGAGTCACCTAGTGCAG”, the binding signal is 9970 fluorescence intensity (a.u.). Turning to “CTCATAACTATTTGAGTGACATGCAAATAACAAGAGAACACGGAGTCACCTAGTGCAG”, the binding signal is 3200 fluorescence intensity (a.u.). On to “ATGTAATTTATGAAACTTACATTGTAACTTTTGAAGTTATCGGAGTCACCTAGTGCAG”, for which the binding signal is 21200 fluorescence intensity (a.u.). For the sequence “TTAACTAATTATGCATTAATAAACCACCTTTCCAAGCACACGGAGTCACCTAGTGCAG”, the binding signal is 36000 fluorescence intensity (a.u.). As to “TTGGTTGAAATTGGAATGATGTGATGGAAAAGTTGAAAGTCGGAGTCACCTAGTGCAG”, the binding signal was 4400 fluorescence intensity (a.u.). With “ATGAAGAATAAATATGATTAGTAGAGAAGAGAGATGATGTCGGAGTCACCTAGTGCAG”, the binding signal is 5490 fluorescence intensity (a.u.). As to “AAAATGATAGATTTAATGCCAAATTTATTATAAAACTACACGGAGTCACCTAGTGCAG”, the binding signal was 19300 fluorescence intensity (a.u.). Take “CAACTTTTCTACATTGCAATCAATTAATTTAGCTCTACAACGGAGTCACCTAGTGCAG”: the binding signal is 7400 fluorescence intensity (a.u.). In the case of “AGGATGGGTGTGGATGATTGAATATCTCTGTTCAGTGTTTCGGAGTCACCTAGTGCAG” it was 16000 fluorescence intensity (a.u.); in that of “CGAGTTAAATTTGACGAGGGATTAGATTTACACTCGATTTCGGAGTCACCTAGTGCAG”, 18700 fluorescence intensity (a.u.); in that of “TGCAGTTATGGCATGATTGGTATCTAGTCGACGCAGAATTCGGAGTCACCTAGTGCAG”, 17800 fluorescence intensity (a.u.). On to “CAAGAAAATTTTGTTTGATCAGACTTGTCAAGTAAAACAACGGAGTCACCTAGTGCAG”, for which the binding signal was 4250 fluorescence intensity (a.u.). Under “TCTGTGTTCTGCTGTTAATTAACTAACCTCAGACGACGTCCGGAGTCACCTAGTGCAG” stands 8270 fluorescence intensity (a.u.); under “CAAATGATTGTAATTTATGCATATTTCTCAGCAAAACTGACGGAGTCACCTAGTGCAG”, 24900 fluorescence intensity (a.u.); under “TAATAATTTAATAGAGAAAAGGTTATAGTTAATTGCTTGCCGGAGTCACCTAGTGCAG”, 24700 fluorescence intensity (a.u.). Under “TGCTGTTAATCAGATGCAATTTCTACAACTGAGCAGTTTCCGGAGTCACCTAGTGCAG” stands 5020 fluorescence intensity (a.u.); under “CCCATGATTTGAAGCCAAGCCAAACCCCACCCCACTCATACGGAGTCACCTAGTGCAG”, 24700 fluorescence intensity (a.u.). In the case of “AACAGACTATTAAGAAACTTAATTTACAGCTTCATTTTCTCGGAGTCACCTAGTGCAG” it was 6670 fluorescence intensity (a.u.); in that of “ACCAGGAGATTTAATTTGGTGCCACAATCGGGTTCCGACGCGGAGTCACCTAGTGCAG”, 4200 fluorescence intensity (a.u.); in that of “ACCCCAGTAAATTACTAATTAACCCTTAATAATAAATGGTCGGAGTCACCTAGTGCAG”, 26000 fluorescence intensity (a.u.). On to “TTTGATTTGATTCGTGTGCTCCCCGCCGCCTTCGATCCCTCGGAGTCACCTAGTGCAG”, for which the binding signal is 43600 fluorescence intensity (a.u.).

“TGCTATTGTTCCAATTAGATAAATGGTAATGACATATTTTCGGAGTCACCTAGTGCAG”: the binding signal was 3910 fluorescence intensity (a.u.).

For “GTGATTGGAACAAATAGATGTACTTTTGATAGCAAGGAACCGGAGTCACCTAGTGCAG”, the binding signal is 48700 fluorescence intensity (a.u.). As to “CTTTGACAGCCTGTCGCCTGTCTCGCACGCTGCTTGCGGCCGGAGTCACCTAGTGCAG”, the binding signal is 14800 fluorescence intensity (a.u.). Turning to “GTAGAAATAATTATATTGTGAGTGAGCTGAAATAAGAAACCGGAGTCACCTAGTGCAG”, the binding signal is 4870 fluorescence intensity (a.u.).

The values above are taken from paper PMC7819943, “Rice protein-binding microarrays: a tool to detect cis-acting elements near promoter regions in rice”.
